Measurements reported in patent US20140086901A1, “Inhibition of Post-Radiation Tumor Growth” (The Board of Trustees of the Leland Stanford Junior …, priority 2008, published 2014).

Tested on: CD11b+ myelomonocytic cells expressing MMP-9
Experiment: Immunostaining quantification of CD11b+, MMP-9+, CD31+ and α-SMA in MT1A2 tumors
Assay type: in vivo, mouse

Q: With `O=P(O)(O)C(O)(Cn1ccnc1)P(=O)(O)O` [ZA, aminobisphosphonate zolendronic acid] as the compound, how does the “fraction of CD11b+ cells that were MMP-9+ vs control” value (MMP-9 KO+WT BM mice) read?
A: Its value is “smaller fraction”.

Q: What about the “number of CD31-expressing vessels vs control tumors” value (MMP-9 KO+WT BM mice) of the same compound?
A: The value was “significantly fewer”.

Q: What about the “vessels associated with α-SMA vs control tumors” value (MMP-9 KO+WT BM mice) of the same compound?
A: The value was “significantly more”.

Q: What about the “number of CD11b+ cells in treated vs control tumors” value (WT+KO BM mice) of the same compound?
A: Its value is “no significant difference”.

Q: What about the “percentage of CD31+ tumor vessels associated with α-SMA” value (WT+KO BM mice) of the same compound?
A: The value was “not affected”.
